# PubChem BioAssay (NCATS)
# “And” between values parts separate entries of the source, which are not always exact repeats. Identical values can stand only once. The shares of active, inactive and inconclusive entries below differ from those in the screen. For some of these results: No potency is given beside an inconclusive call; the fits are too rough. The source made the active and inactive calls. Unless noted, the call rests on the fitted dose curve; in most records, active means well fitted curve in the direction sought with a large enough effect; inconclusive means small, poorly fitted or top-dose-only effect, or another doubt; inactive means no such curve, though single readings can be large; an effect the other way counts as inactive or inconclusive.
# Experiments:
# [1] = qHTS of pediatric cancer cell lines to identify multiple opportunities for drug repurposing: Primary screen for A673 cells (AID 1347092); settings: A673 Ewing sarcoma viability, CellTiter-Glo ATP luminescence, 48 h; activity change, negative = cytotoxic: at 46 µM (top of the series); further: potency means the concentration at half of the fitted maximal effect; nearly all actives have a fitted effect of over 45% in size
# Summary of the method: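 A673 cells (500-1,000 cells/well) were treated 48 hours at 37 degrees C with compounds at 11-point (0.78 nM to 46 µM) or 8-point (0.59 nM to 46 µM) dilutions. Viability read by CellTiter-Glo luminescence; concentration-response curves fitted.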
# [2] = qHTS of pediatric cancer cell lines to identify multiple opportunities for drug repurposing: Primary screen for SK-N-MC cells (AID 1347093); settings: SK-N-MC viability, CellTiter-Glo luminescence, 48 h; activity change, negative = cytotoxic: at 46 µM (top of the series); further: potency means the concentration at half of the fitted maximal effect;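 on activity change, negative = cytotoxic: plate controls were DMSO neutral control for no effect and bortezomib for full effect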
# Summary of the method: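 Metabolically active cells were quantified by ATP-dependent luminescence (CellTiter-Glo, 15 min at room temperature) following 48 h treatment. Cells had been plated at 500-1,000 per well and settled for 5 h beforehand.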
# [3] = qHTS of pediatric cancer cell lines to identify multiple opportunities for drug repurposing: Primary screen for Saos-2 cells (AID 1347097); settings: Saos-2 viability, CellTiter-Glo ATP luminescence, 48 h; activity change, negative = cytotoxic: at 46 µM (top of the series); further: nearly all actives have a fitted effect of over 40% in size; further: potency means the concentration at half of the fitted maximal effect; on activity change, negative = cytotoxic: on the % scale 0 is the no-effect control and ±100 the full control effect
# Summary of the method: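 ATP-based luminescence (CellTiter-Glo) quantifies viability after a 48-hour exposure. Compounds are dosed across 8 or 11 final concentrations; DMSO and 2.3 µM bortezomib serve as controls.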
# [4] = qHTS of pediatric cancer cell lines to identify multiple opportunities for drug repurposing: Primary screen for SK-N-SH cells (AID 1347098); further: nearly all actives have a fitted effect of over 65% in size; further: potency means the concentration at half of the fitted maximal effect;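 on activity change, negative = cytotoxic: DMSO served as neutral control and bortezomib at 2.3 µM as positive control; on the % scale 0 is the no-effect control and ±100 the full control effect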
# Summary of the method: (§1)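 Cells (500-1,000/well) rested 5 h, then received compounds for 48 h; metabolically active cells were measured by CellTiter-Glo luminescence. Final concentrations spanned up to 46 µM (MIPE, 11-point) or 0.59 nM-46 µM (NPC, 8-point) in primary screens, 11-point in follow-ups.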
# [5] = qHTS of pediatric cancer cell lines to identify multiple opportunities for drug repurposing: Primary screen for BT-12 cells (AID 1347101); further: nearly all actives have a fitted effect of over 25% in size; further: potency means the concentration at half of the fitted maximal effect;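 on activity change, negative = cytotoxic: plate controls were DMSO for no effect and bortezomib positive control for full effect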
# Summary of the method: as §1
# [6] = qHTS of pediatric cancer cell lines to identify multiple opportunities for drug repurposing: Primary screen for Rh18 cells (AID 1347102); further: potency means the concentration at half of the fitted maximal effect; nearly all actives have a fitted effect of over 65% in size
# Summary of the method: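 Viability after 48 h compound treatment at 37C, 500-1,000 cells/well, read as ATP luminescence with CellTiter-Glo. Primary screens used 11-point (MIPE, 0.78 nM-46 µM) or 8-point (NPC, 0.59 nM-46 µM) final concentrations; follow-up screens used 11-point dilutions.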
# [7] = qHTS of pediatric cancer cell lines to identify multiple opportunities for drug repurposing: Primary screen for OHS-50 cells (AID 1347103); settings: OHS-50 osteosarcoma viability, CellTiter-Glo luminescence, 48 h; activity change, negative = cytotoxic: at 57.3 µM (top of the series); further: nearly all actives have a fitted effect of over 40% in size; further: potency means the concentration at half of the fitted maximal effect;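 on activity change, negative = cytotoxic: plate controls were DMSO neutral control for no effect and bortezomib positive control for full effect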
# Summary of the method: as §1
# [8] = Primary qHTS for small molecule stabilizers of the endoplasmic reticulum resident proteome: Secreted ER Calcium Modulated Protein (SERCaMP) assay (AID 1508630); settings: SH-SY5Y GLuc-SERCaMP (Gaussia luciferase released on ER calcium loss) secretion, thapsigargin, luminescence; activity change, negative = inhibition: at 38.4 µM (top of the series) unless noted; further: potency means the concentration at half of the fitted maximal effect; on activity change, negative = inhibition: on the % scale 0 is the no-effect control and ±100 the full control effect
# Summary of the method: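 The SH-SY5Y reporter protocol was run at 3 concentrations up to 38.3 uM (primary) or 11 concentrations (follow-up): 16 h compound, 100 nM thapsigargin for 4 h, then extracellular luciferase luminescence.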
# [9] = A High-Content qHTS Against Drug Library for the Identification of Small Molecules that Inhibit DYT1 Early Onset Primary Dystonia-Associated Cell Pathology (AID 1645839; calls by dose curve; further: potency means the concentration at half of the fitted maximal effect)
# Summary of the method: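 Cells were seeded and left for 24 h, then dosed with compound alongside tetracycline induction of mutant EGFP-TorsinA. They were incubated for 48 h, fixed in 4% paraformaldehyde, permeabilized and imaged for mislocalization (%pathology) and cell count.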
# [10] = molecular target: Cytochrome P450 2C9 (Homo sapiens) (UniProt P11712); experiment: Cytochrome P450 family 2 subfamily C member 9 (CYP2C9) small molecule antagonists: luciferase biochemical (cell-free) qHTS assay (AID 1645842; active means well fitted curve in the direction sought with a large enough effect in the repeat runs; inconclusive means weak or mixed curves; inactive means no such curve, though single readings can be large; an effect the other way counts as inactive or inconclusive; further: nearly all actives have a fitted effect of over 55% in size; further: potency means the concentration at half of the fitted maximal effect)
# Chain of UniProt P11712 (P11712 whole entry, looked up): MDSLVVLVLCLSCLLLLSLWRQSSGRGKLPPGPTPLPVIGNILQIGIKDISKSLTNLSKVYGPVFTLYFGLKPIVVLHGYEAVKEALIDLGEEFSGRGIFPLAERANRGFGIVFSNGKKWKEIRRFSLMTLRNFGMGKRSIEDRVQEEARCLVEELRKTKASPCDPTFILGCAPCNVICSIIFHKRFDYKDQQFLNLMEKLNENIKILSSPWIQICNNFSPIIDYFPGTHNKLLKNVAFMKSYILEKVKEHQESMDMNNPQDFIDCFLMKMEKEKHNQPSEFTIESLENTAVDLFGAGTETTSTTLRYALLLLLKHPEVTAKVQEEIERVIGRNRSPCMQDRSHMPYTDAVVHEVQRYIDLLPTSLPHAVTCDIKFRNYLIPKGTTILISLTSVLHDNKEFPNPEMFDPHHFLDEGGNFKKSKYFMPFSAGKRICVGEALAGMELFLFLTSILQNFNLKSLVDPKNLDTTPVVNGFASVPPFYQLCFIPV
# Summary of the method: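 P450-Glo CYP2C9 system: proluciferin substrate with enzyme in mix containing 0.4% BSA, 10 min at room temperature, then NADPH regeneration solution added and incubated 1 h at 37C. Detection reagent stopped reaction; luminescence read after 20 min as RLU.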
# MKL-2 = experiment: qHTS assay to identify novel small-molecules to repurpose for Merkel cell carcinoma treatment (AID 1296009); settings: MCC and control cell lines, CellTiter-Glo viability, 72 h; activity change, negative = cytotoxicity: at 46 µM (top of the series); further: on the % scale 0 is the no-effect control and ±100 the full control effect; nearly all actives have a fitted effect of over 60% in size
# Summary of the method: (§2)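 Dose-response viability screen; 72 hr exposure at 37 degree celsius; CellTiter-Glo added, 10 min room temperature, luminescence read; RLUs scaled between no-cell and DMSO wells.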
# GB4 = experiment: qHTS profiling for inhibitors of Plasmodium falciparum proliferation (AID 504749); further: potency means the concentration at half of the fitted maximal effect; nearly all actives have a fitted effect of over 60% in size; settings: P. falciparum in erythrocytes, SYBR Green DNA, 72 h; series mostly up to 28.7 µM
# Summary of the method: (§3)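 Each compound contacts P. falciparum-infected red blood cells for 72 h at 37 C; lysis buffer (Tris, EDTA, saponin, Triton X, SYBR Green I) is added and fluorescence measured next morning; values normalized to controls.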
# [11] = molecular target: Phospholipid hydroperoxide glutathione peroxidase GPX4 (Homo sapiens) (UniProt P36969); experiment: Primary qHTS Assay for Inhibitors of Recombinant Selenoprotein Glutathione Peroxidase 4 (GPX4) (AID 1845192); settings: activity change, negative = inhibition: at 50 µM (top of the series) unless noted; further: potency means the concentration at half of the fitted maximal effect; nearly all actives have a fitted effect of over 65% in size
# Chain of UniProt P36969 (P36969 whole entry, looked up): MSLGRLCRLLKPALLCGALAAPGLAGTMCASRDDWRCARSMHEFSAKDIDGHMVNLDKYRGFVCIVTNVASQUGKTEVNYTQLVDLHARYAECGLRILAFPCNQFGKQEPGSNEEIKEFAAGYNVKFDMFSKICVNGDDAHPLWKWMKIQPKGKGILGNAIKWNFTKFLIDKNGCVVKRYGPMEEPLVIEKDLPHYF
# Summary of the method: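 Steps: GPX4 plus compound, 30 min RT; add GR/GSH/NADPH master mix; start with cumene hydroperoxide; read 340/450 nm fluorescence at 0 and 15 min. Finals were 200 nM GPX4, 1 mM GSH, 0.5 mM CHP, 0.5 mM NADPH, 100 nM GR.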
# UISO = experiment: qHTS assay to identify novel small-molecules to repurpose for Merkel cell carcinoma treatment (AID 1296009); settings: MCC and control cell lines, CellTiter-Glo viability, 72 h; series mostly up to 46 µM; further: on the % scale 0 is the no-effect control and ±100 the full control effect; nearly all actives have a fitted effect of over 60% in size
# Summary of the method: as §2
# [12] = qHTS of pediatric cancer cell lines to identify multiple opportunities for drug repurposing: Primary screen for SJ-GBM2 cells (AID 1347091); further: potency means the concentration at half of the fitted maximal effect;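 on activity change, negative = cytotoxic: plate controls were DMSO neutral control for no effect and bortezomib for full effect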
# Summary of the method: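 Viability measured as metabolically active cells via CellTiter-Glo luminescence following 48 hours of compound exposure, 11-point dilutions in confirmatory testing. 500-1,000 cells/well plated 5 hours before dosing; controls were DMSO and 2.3 µM bortezomib.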
# [13] = Drug repurposing screens with cells derived from glioblastoma tumor samples (AID 1345199); settings: GBM patient neurospheres viability, ATP luminescence, 48 h; Potency: tumour line A unless noted; activity, negative = cell killing: at 46 µM (top of the series), tumour line A unless noted; further: potency means the concentration at half of the fitted maximal effect; nearly all actives have a fitted effect of over 40% in size
# Summary of the method: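 Primary testing used CD133+ neurospheres from four GBM patients, seven concentrations, 48 h exposure and ATP-based viability; confirmation added three slower-growing patient lines.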
# W2 = experiment: qHTS profiling for inhibitors of Plasmodium falciparum proliferation (AID 504749); further: potency means the concentration at half of the fitted maximal effect; nearly all actives have a fitted effect of over 60% in size; settings: P. falciparum in erythrocytes, SYBR Green DNA, 72 h; activity, negative = inhibition: at 28.7 µM (top of the series)
# Summary of the method: as §3
# [14] = NFAT Signaling Pathway (AID 444; active means well fitted curve in either direction with a large enough effect, not every such curve was filed as active; inconclusive means small, poorly fitted or top-dose-only effect, or another doubt;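 further: carbachol stimulus at about its EC50 of 1 µM final; on the % scale 0 is the no-effect control and ±100 the full control effect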); settings: Jurkat NFAT-bla M1, carbachol, beta-lactamase ratio, 5 h
# Summary of the method: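 Jurkat cells with NFAT-driven β-lactamase reporter and co-expressed M1 receptor, stimulated with carbachol (final 1 uM, ~EC50), compound titration, 5 h at 37 °C. CCF4 loaded 1 h at RT; 460/530 nm ratio gave %activity and AC50.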
# [15] = Primary redox qHTS assay for identification of artifact compounds. (AID 1845223); further: potency means the concentration at half of the fitted maximal effect
# Summary of the method: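 Redox-cycling detection via DTT (250 uM final) oxidation coupled to Amplex Red (25 uM)/HRP (250 mU/mL) in HBSS. 15 min preincubation plus 30 min after DTT, room temperature. Ex/Em 525/598 nm; 4-parameter Hill fit against DMSO and 10 uM DA3003.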
# Tags describe the fitted curve by direction and shape.
smiles,measurement,setting,value
Cc1c(C)c2c(c(C)c1OC(=O)CCC(=O)OCCO)CC[C@@](C)(CCC[C@H](C)CCC[C@H](C)CCCC(C)C)O2,Potency,[1],"inconclusive [cytotoxic, single point]"
same,Potency,[2],"inconclusive [cytotoxic, single point]"
same,Potency,[3],inactive
same,Potency,[4],"inconclusive [cytotoxic, partial curve, poor fit]"
same,Potency,[5],"inconclusive [cytotoxic, partial curve]"
same,Potency,[6],"inconclusive [cytotoxic, partial curve, poor fit]"
same,Potency,[7],"inconclusive [cytotoxic, partial curve]"
same,Potency,[8],inactive
same,Potency,[9],active: 5.62 µM
same,Potency,[10],"inconclusive [inhibitor, partial curve]"
CC(=O)N[C@@H](CCC(=O)O)C(=O)O,Potency,[2],inactive
same,Potency,[3],inactive
same,Potency,[5],inactive
same,Potency,[8],"inconclusive [inhibitor, full curve]"
same,Potency,MKL-2,inactive
same,Potency,GB4,"inconclusive [inhibitor, single point]"
COc1cc2nc(N3CCC(N4CCCCC4)CC3)nc(NC3CCCCCC3)c2cc1OC,Potency,[11],"inconclusive [inhibitor, partial curve]"
CCN(CC)CCN,Potency,[3],inactive
same,Potency,[4],inactive
same,Potency,UISO,inactive
CCN(CC)CCOC(=O)C1(c2ccccc2)CCCC1,Potency,[12],inactive
same,Potency,[4],inactive
same,Potency,[8],"inconclusive [inhibitor, partial curve, poor fit]"
same,Potency,[9],inactive
same,Potency,UISO,inactive
same,Potency,[13],"inconclusive [inhibitor, partial curve, poor fit]"
same,Potency,GB4,"inconclusive [inhibitor, partial curve]"
same,Potency,W2,inconclusive [activator]
O=C(Nc1ccc(S(=O)(=O)N2CCOCC2)cc1)c1cc(Cl)ccc1NS(=O)(=O)c1ccc(Cl)s1,Potency,[12],"inconclusive [cytotoxic, single point]"
same,Potency,[3],"inconclusive [cytotoxic, single point]"
same,Potency,[9],"inconclusive [inhibitor, partial curve, poor fit]"
same,Potency,[11],"inconclusive [inhibitor, single point]"
same,Potency,MKL-2,inactive
same,Potency,[13],active: 6.31 µM
CN1CCC(OC(c2ccccc2)c2ccccc2)CC1,"activity change, negative = inhibition",[14]; at 17.2 µM (top of the series),inconclusive: -50% [inhibitor]
same,Potency,[3],inactive
same,Potency,[5],"inconclusive [cytotoxic, partial curve, poor fit]"
same,Potency,[7],"inconclusive [cytotoxic, single point]"
same,Potency,[8],"inconclusive [inhibitor, partial curve, poor fit]"
same,Potency,[9],"inconclusive [inhibitor, single point]"
same,Potency,GB4,"inconclusive [inhibitor, partial curve]"
same,Potency,W2,active: 3.22 µM
CCO/C([O-])=N/c1c[n+](N2CCOCC2)no1,"activity change, negative = inhibition",[14]; at 17.2 µM (top of the series),inactive: -13.9% and inactive: -20.6%
same,"activity change, negative = inhibition",[14]; at 38 µM (top of the series),inactive: -9.67%
same,Potency,[10],inactive
same,Potency,UISO,inactive
CC[C@H](CO)Nc1nc(NCc2ccc(-c3ccccn3)cc2)c2ncn(C(C)C)c2n1,Potency,[15],"inconclusive [activator, partial curve]"
CC(=O)N(CC(=O)N(C)C)c1ccccc1,Potency,[12],inactive
same,Potency,[7],inactive
same,Potency,UISO,inactive
Cc1cc(OCc2nc(-c3ccccc3Cl)cs2)ccc1OCC(=O)O,Potency,[10],"inconclusive [inhibitor, single point]"
same,Potency,[15],"inconclusive [activator, full curve, poor fit]"
